Results from article PMC4575187 (PLoS ONE, 2015).
In brackets after ≈: the same amount, converted by molar mass. Ends that are not written are not given here.

Legend:
[1] = test system: influenza A/Puerto Rico/8/34 (H1N1); conditions: /Puerto Rico/8/34, 48 h
[2] = test system: WT of influenza strain of A/Puerto Rico/8/34 (H1N1); assay: microbe, parasite or virus in culture; format: cell-based; conditions: H1N1, MDCK, read-out: IC50 against WT A/Puerto Rico/8/34 (H1N1)
[3] = test system: influenza A/Puerto Rico/8/34 (H1N1); assay: microbe, parasite or virus in culture; conditions: H1N1, MDCK, read-out: H1N1 IC50
[4] = test system: influenza A/Puerto Rico/8/34 (H1N1); format: cell-based, influenza A virus
[5] = test system: influenza A/Puerto Rico/8/34 (H1N1); assay: Enzyme-linked immunosorbent assay of viral nucleoprotein (NP); format: cell-based, influenza A virus
[6] = test system: influenza virus A/Puerto Rico/8/34 (H1N1); assay: Hemolysis inhibition assay at low pH; conditions: pH 5
[7] = test system: influenza A/Puerto Rico/8/34 (H1N1); assay: Quantitative real-time PCR of viral HA gene; format: cell-based, influenza A virus

GLFGAIAGFIKKGWPGLVKG-NH2 [HA-FP-3-1] was tested, and the “H1N1 IC50” value [1] was 10.37 ± 0.05 µg/mL.

Work on `CCOC(=O)C1=C[C@@H](OC(CC)CC)[C@H](NC(C)=O)[C@@H](N)C1` [Oseltamivir, reference compound] yielded an IC50 [2] of 0.017 ± 0.002 µg/mL (≈ 0.0544 µM).

`NC(=O)c1ncn([C@@H]2O[C@H](CO)[C@@H](O)[C@H]2O)n1` [Ribavirin] was tested, and the IC50 [3] was 3.22 µg/mL (≈ 13.2 µM).

GLFGAIAGFIKNGWKGMIKG-NH2 [HA-FP-1] was tested, and the “H1N1 IC50” value [1] was 9.61 ± 1.15 µg/mL, the “virus inhibitory effect, virus titer reduction assay” value [4] was “dose-dependent manner” and the “virus inhibitory effect, ELISA” value [5] was “dose-dependent manner”. For the same molecule, the “hemolysis of cRBCs induced by virus at low pH” value [6] was “apparently inhibited in a dose-dependent manner” and the “mRNA level of viral HA gene” value [7] was “reduced level of mRNA expression”.

For GLFGAIAGFIKGGWPGLVKG-NH2 [HA-FP-3], the “H1N1 IC50” value [1] was 15.17 ± 3.69 µg/mL.
